# Source: the supplement of paper PMC10037445
# The full ranking holds about 2,900 compounds; the median of “NF-kB SEAP reporter activity, fold change vs agonist alone” is about 0.99, and the highest 2% start at about 2.6. The list shows a part of the results.
# Legend:
# RAW-Dual [1] = assay: NF-kB SEAP reporter activity, fold change vs agonist alone; cytotoxicity flag (confluency mask): not cytotoxic; higher = enhanced NF-kB activity
# Summary of the method: (§1)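 Cytotoxic wells were those whose IncuCyte confluency was below 70% of agonist controls in both mask sets. The cells were RAW-Dual macrophages at 50,000 cells/well in DMEM on 384-well plates, dosed with 50 nL of library stock by pin tool, stimulated with a PRR agonist 1 h later, and kept at 37 °C, 5% CO2 for 20 hours. IRF and NF-κB reporter activity, as fold change over agonist-alone wells, came from supernatant read by QuantiLuc luminescence and QuantiBlue absorbance, respectively.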
# RAW-Dual [2] = assay: NF-kB SEAP reporter activity, fold change vs agonist alone; higher = enhanced NF-kB activity
# Summary of the method: as §1
# RAW-Dual [3] = assay: NF-kB SEAP reporter activity, fold change vs agonist alone; cytotoxicity flag (confluency mask): cytotoxic (confluency <70% of control); higher = enhanced NF-kB activity
# Summary of the method: as §1
# [4] = agonist: ODN 1826 (TLR9) 0.5 ug/mL
# [5] = agonist: Pam2CSK4 (TLR2/6) 0.1 ug/mL
# [6] = agonist: Pam3CSK4 (TLR2/1) 0.1 ug/mL
# [7] = library stock concentration (final ~1000-fold dilution): 10 mM, cytotoxicity flag (confluency mask): not cytotoxic, agonist: Imiquimod (TLR7) […]
# [8] = library stock concentration (final ~1000-fold dilution): 10 mM, cytotoxicity flag (confluency mask): not cytotoxic, agonist: MPLA (TLR4) […]
# [9] = library stock concentration (final ~1000-fold dilution): 10 mM, cytotoxicity flag (confluency mask): cytotoxic (confluency <70% of control), agonist: Imiquimod (TLR7) […]
# [10] = library stock concentration (final ~1000-fold dilution): 10 mM, cytotoxicity flag (confluency mask): cytotoxic (confluency <70% of control), agonist: MPLA (TLR4) […]
structure (smiles),measurement,setting,value
Oc1c(F)cc(-c2cnccc2-c2ccc(N3CCOCC3)cc2)cc1F (library stock concentration (final ~1000-fold dilution): 10 mM),NF-kB SEAP reporter activity,RAW-Dual [1]; agonist: LPS (TLR4) 0.1 ug/mL,1.12
same,NF-kB SEAP reporter activity,RAW-Dual [1]; [4],0.913
same,NF-kB SEAP reporter activity,RAW-Dual [1]; [5],0.947
same,NF-kB SEAP reporter activity,RAW-Dual [1]; [6],0.73
Oc1c(F)cc(-c2cnccc2-c2ccc(N3CCOCC3)cc2)cc1F,NF-kB SEAP reporter activity,RAW-Dual [2]; [7],1.08
same,NF-kB SEAP reporter activity,RAW-Dual [2]; [8],0.911
CCCCCCCCCCCCc1ccc(S(=O)(=O)Nc2nncs2)cc1 (library stock concentration (final ~1000-fold dilution): 10 mM),NF-kB SEAP reporter activity,RAW-Dual [3]; agonist: LPS (TLR4) 0.1 ug/mL,0.575
same,NF-kB SEAP reporter activity,RAW-Dual [3]; [4],0.796
same,NF-kB SEAP reporter activity,RAW-Dual [3]; [5],0.819
same,NF-kB SEAP reporter activity,RAW-Dual [3]; [6],0.683
CCCCCCCCCCCCc1ccc(S(=O)(=O)Nc2nncs2)cc1,NF-kB SEAP reporter activity,RAW-Dual [2]; [9],0.947
same,NF-kB SEAP reporter activity,RAW-Dual [2]; [10],0.824
CN1CCN(c2c(F)cc3c(=O)c(C(=O)O)cn4c3c2OCN4C)CC1,NF-kB SEAP reporter activity,"RAW-Dual [2]; library stock concentration (final ~1000-fold dilution): 2 mM, cytotoxicity flag (confluency mask): not cytotoxic, agonist: Imiquimod (TLR7) […]",1.04
same,NF-kB SEAP reporter activity,"RAW-Dual [2]; library stock concentration (final ~1000-fold dilution): 2 mM, cytotoxicity flag (confluency mask): not cytotoxic, agonist: MPLA (TLR4) […]",1.01
CN1CCN(c2c(F)cc3c(=O)c(C(=O)O)cn4c3c2OCN4C)CC1 (library stock concentration (final ~1000-fold dilution): 2 mM),NF-kB SEAP reporter activity,RAW-Dual [1]; agonist: LPS (TLR4) 0.1 ug/mL,1.22
same,NF-kB SEAP reporter activity,RAW-Dual [1]; [4],1.04
same,NF-kB SEAP reporter activity,RAW-Dual [1]; [5],1.11
same,NF-kB SEAP reporter activity,RAW-Dual [1]; [6],1.18
CC(NCc1ccc(OCc2cccc(F)c2)cc1)C(N)=O (configuration not stated),NF-kB SEAP reporter activity,RAW-Dual [2]; [8],1.07
CC(NCc1ccc(OCc2cccc(F)c2)cc1)C(N)=O (configuration not stated) (library stock concentration (final ~1000-fold dilution): 10 mM),NF-kB SEAP reporter activity,RAW-Dual [1]; agonist: LPS (TLR4) 0.1 ug/mL,1.32
same,NF-kB SEAP reporter activity,RAW-Dual [1]; [4],0.933
same,NF-kB SEAP reporter activity,RAW-Dual [1]; [5],1.16
same,NF-kB SEAP reporter activity,RAW-Dual [1]; [6],0.745
CC(CN(C)C)Oc1nc(Nc2cc3cccc(Cl)c3cn2)cnc1C#N (configuration not stated) (library stock concentration (final ~1000-fold dilution): 10 mM),NF-kB SEAP reporter activity,RAW-Dual [1]; agonist: LPS (TLR4) 0.1 ug/mL,0.783
same,NF-kB SEAP reporter activity,RAW-Dual [1]; [4],1.33
same,NF-kB SEAP reporter activity,RAW-Dual [1]; [5],0.55
same,NF-kB SEAP reporter activity,RAW-Dual [1]; [6],0.508
CC(CN(C)C)Oc1nc(Nc2cc3cccc(Cl)c3cn2)cnc1C#N (configuration not stated),NF-kB SEAP reporter activity,RAW-Dual [2]; [7],1.03
same,NF-kB SEAP reporter activity,RAW-Dual [2]; [8],0.831
CNC(=O)c1ccc(C)c(-n2c(C)cc(OCc3ccc(F)cc3F)c(Br)c2=O)c1,NF-kB SEAP reporter activity,RAW-Dual [2]; [7],0.696
same,NF-kB SEAP reporter activity,RAW-Dual [2]; [8],1.31
CNC(=O)c1ccc(C)c(-n2c(C)cc(OCc3ccc(F)cc3F)c(Br)c2=O)c1 (library stock concentration (final ~1000-fold dilution): 10 mM),NF-kB SEAP reporter activity,RAW-Dual [1]; agonist: LPS (TLR4) 0.1 ug/mL,1.55
same,NF-kB SEAP reporter activity,RAW-Dual [1]; [4],0.711
same,NF-kB SEAP reporter activity,RAW-Dual [1]; [5],0.565
same,NF-kB SEAP reporter activity,RAW-Dual [1]; [6],0.403
Cc1cc(OCc2nnc(SC3CCCC3)n2-c2cccnc2)ccc1-c1ccc(S(C)(=O)=O)cc1 (library stock concentration (final ~1000-fold dilution): 10 mM),NF-kB SEAP reporter activity,RAW-Dual [3]; agonist: LPS (TLR4) 0.1 ug/mL,0.303
same,NF-kB SEAP reporter activity,RAW-Dual [3]; [4],0.336
same,NF-kB SEAP reporter activity,RAW-Dual [3]; [5],0.132
same,NF-kB SEAP reporter activity,RAW-Dual [3]; [6],0.162
Cc1cc(OCc2nnc(SC3CCCC3)n2-c2cccnc2)ccc1-c1ccc(S(C)(=O)=O)cc1,NF-kB SEAP reporter activity,RAW-Dual [2]; [9],0.296
same,NF-kB SEAP reporter activity,RAW-Dual [2]; [10],0.342
CC(=O)NC(CC(C)C)C(=O)NC(CC(C)C)C(=O)NC(C=O)CCCNC(=N)N (configuration not stated) (library stock concentration (final ~1000-fold dilution): 10 mM),NF-kB SEAP reporter activity,RAW-Dual [1]; agonist: LPS (TLR4) 0.1 ug/mL,1.01
same,NF-kB SEAP reporter activity,RAW-Dual [1]; [4],1.02
same,NF-kB SEAP reporter activity,RAW-Dual [1]; [5],1.08
same,NF-kB SEAP reporter activity,RAW-Dual [1]; [6],1.15
CC(=O)NC(CC(C)C)C(=O)NC(CC(C)C)C(=O)NC(C=O)CCCNC(=N)N (configuration not stated),NF-kB SEAP reporter activity,RAW-Dual [2]; [7],0.983
same,NF-kB SEAP reporter activity,RAW-Dual [2]; [8],1.09
COc1cccc2c1C(=O)c1c(O)c3c(c(O)c1C2=O)CC(O)(C(C)=O)CC3OC1CC(N)C(O)C(C)O1.Cl (configuration not stated) (library stock concentration (final ~1000-fold dilution): 10 mM),NF-kB SEAP reporter activity,RAW-Dual [3]; agonist: LPS (TLR4) 0.1 ug/mL,0.249
same,NF-kB SEAP reporter activity,RAW-Dual [3]; [4],0.191
same,NF-kB SEAP reporter activity,RAW-Dual [3]; [5],0.0932
same,NF-kB SEAP reporter activity,RAW-Dual [3]; [6],0.195
COc1cccc2c1C(=O)c1c(O)c3c(c(O)c1C2=O)CC(O)(C(C)=O)CC3OC1CC(N)C(O)C(C)O1.Cl (configuration not stated),NF-kB SEAP reporter activity,RAW-Dual [2]; [9],0.365
same,NF-kB SEAP reporter activity,RAW-Dual [2]; [10],0.213
CC(C)S(=O)(=O)c1ccc2nccc(Nc3ccc4scnc4c3)c2c1,NF-kB SEAP reporter activity,RAW-Dual [2]; [7],1.49
same,NF-kB SEAP reporter activity,RAW-Dual [2]; [8],1.34
CC(C)S(=O)(=O)c1ccc2nccc(Nc3ccc4scnc4c3)c2c1 (library stock concentration (final ~1000-fold dilution): 10 mM),NF-kB SEAP reporter activity,RAW-Dual [1]; agonist: LPS (TLR4) 0.1 ug/mL,2.42
same,NF-kB SEAP reporter activity,RAW-Dual [1]; [4],1.39
same,NF-kB SEAP reporter activity,RAW-Dual [1]; [5],1.5
same,NF-kB SEAP reporter activity,RAW-Dual [1]; [6],1.56
CN(C)C1C(O)=C(C(N)=O)C(=O)C2(O)C(O)=C3C(=O)c4c(O)ccc(Cl)c4C(O)C3CC12.Cl (configuration not stated) (library stock concentration (final ~1000-fold dilution): 10 mM),NF-kB SEAP reporter activity,RAW-Dual [1]; agonist: LPS (TLR4) 0.1 ug/mL,1.28
same,NF-kB SEAP reporter activity,RAW-Dual [1]; [4],1.25
same,NF-kB SEAP reporter activity,RAW-Dual [1]; [5],0.881
same,NF-kB SEAP reporter activity,RAW-Dual [1]; [6],0.934
CN(C)C1C(O)=C(C(N)=O)C(=O)C2(O)C(O)=C3C(=O)c4c(O)ccc(Cl)c4C(O)C3CC12.Cl (configuration not stated),NF-kB SEAP reporter activity,RAW-Dual [2]; [7],1.26
same,NF-kB SEAP reporter activity,RAW-Dual [2]; [8],1.37
NC(=O)c1cccc(N)c1 (library stock concentration (final ~1000-fold dilution): 10 mM),NF-kB SEAP reporter activity,RAW-Dual [1]; agonist: LPS (TLR4) 0.1 ug/mL,0.985
same,NF-kB SEAP reporter activity,RAW-Dual [1]; [4],0.989
same,NF-kB SEAP reporter activity,RAW-Dual [1]; [5],1.07
same,NF-kB SEAP reporter activity,RAW-Dual [1]; [6],1.13
NC(=O)c1cccc(N)c1,NF-kB SEAP reporter activity,RAW-Dual [2]; [7],0.892
same,NF-kB SEAP reporter activity,RAW-Dual [2]; [8],0.99
COc1cccc2c1C(=O)c1c(O)c3c(c(O)c1C2=O)CC(O)(C(=O)CO)CC3OC1CC(N)C(O)C(C)O1.Cl (configuration not stated),NF-kB SEAP reporter activity,RAW-Dual [2]; [7],0.222
same,NF-kB SEAP reporter activity,RAW-Dual [2]; [8],0.229
COc1cccc2c1C(=O)c1c(O)c3c(c(O)c1C2=O)CC(O)(C(=O)CO)CC3OC1CC(N)C(O)C(C)O1.Cl (configuration not stated) (library stock concentration (final ~1000-fold dilution): 10 mM),NF-kB SEAP reporter activity,RAW-Dual [1]; agonist: LPS (TLR4) 0.1 ug/mL,0.25
same,NF-kB SEAP reporter activity,RAW-Dual [1]; [4],0.194
same,NF-kB SEAP reporter activity,RAW-Dual [1]; [5],0.103
same,NF-kB SEAP reporter activity,RAW-Dual [1]; [6],0.16
